The chains are these.
B1: PhoQ; a variant is named by its letters at X, in order, P23837 (parent)
chain: MKKLLRLFFPLSLRVRFLLATAAVVLVLSLAYGMVALIGYSVSFDKTTFRLLRGESNLFYTLAKWENNKLHVELPENIDKQSPTMTLIYDENGQLLWAQRDVPWLMKMIQPDWLKSNGFHEIEADVNDTSLLLSGDHSIQQQLQEVREDDDDAEMTHSVAVNVYPATSRMPKLTIVVVDTIPVELKSSYMVWSWFIYVLSANLLLVIPLLWVAAWWSLRPIEALAKEVRELEEHNRELLNPATTRELTSLVRNLNRLLKSERERYDKYRTTLTDLTHSLKTPLXXLQXXLRSLRSEKMSVSDAEPVMLEQISRISQQIGYYLHRASMRGGTLLSRELHPVAPLLDNLTSALNKVYQRKGVNISLDISPEISFVGEQNDFVEVMGNVLDNACKYCLEFVEISARQTDEHLYIVVEDDGPGIPLSKREVIFDRGQRVDTLRPGQGVGLAVAREITEQYEGKIVAGESMLGGARMEVIFGRQHSAPKDE

The list shows a part of the results.

The variants in the assay derive from B1. Put plainly: enrichment ratio after two sorts for PhoP signalling (ratio (wild type AVST 3.29)); higher = more functional. The note with it: with PhoP (E. coli).
With YAQT, the enrichment ratio was not above 0.25. As for WRWH, the figure is not above 0.25; as for HTCH, not above 0.25. For the variant PSKW, the enrichment ratio is not above 0.25. As for DAAP, the figure is not above 0.25.

For QMSD, the enrichment ratio was not above 0.25. Under QGDM stands 27.5; under HKAI, not above 0.25.

Regarding FDGR, the enrichment ratio is not above 0.25. As for EMRF, the figure is not above 0.25.

With SCGH, the enrichment ratio was found to be 6.81. Under MDMI stands 6.22. In the case of WMCL, the enrichment ratio was not above 0.25. Consider VTMG, for which the enrichment ratio amounted to 3.95. Under WRHI stands not above 0.25; under SHMV, not above 0.25; under GHRG, not above 0.25. In the case of YMDD, the enrichment ratio is not above 0.25. On to NEYS, for which the enrichment ratio was not above 0.25.

On to PVNC, for which the enrichment ratio is not above 0.25. Under WGSK stands not above 0.25; under LFCT, not above 0.25. Under IISY stands 1.46; under SLYT, not above 0.25. As for GRWN, the figure is not above 0.25; as for GEPD, not above 0.25. As for FANF, the enrichment ratio is not above 0.25.

Consider MIKR, for which the enrichment ratio was not above 0.25. As for ALYD, the figure is not above 0.25; as for TVQH, 4.75. As for EWLC, the figure is not above 0.25. As for RMHN, the figure is not above 0.25; as for PFMD, not above 0.25. For the variant QRQC, the enrichment ratio was not above 0.25. As for KVDH, the figure is not above 0.25; as for PRSY, not above 0.25.

As to WMTY, the enrichment ratio was not above 0.25. For HAHK, the enrichment ratio is not above 0.25.

For ETMV, the enrichment ratio was not above 0.25. Under LKHM stands not above 0.25; under QRCA, not above 0.25; under NHVG, not above 0.25. As to GKTD, the enrichment ratio was not above 0.25. Consider DHIS, for which the enrichment ratio is not above 0.25. As for NCWL, the figure is not above 0.25; as for PDGC, not above 0.25.

On to GKAT, for which the enrichment ratio was not above 0.25. As for YNAI, the enrichment ratio was not above 0.25. Turning to WLAC, the enrichment ratio was not above 0.25. As for VRGY, the figure is not above 0.25; as for EIGM, not above 0.25; as for YMVV, not above 0.25. Turning to IRCC, the enrichment ratio was not above 0.25. Under SMWV stands not above 0.25. Under WLVC stands not above 0.25; under VHAR, not above 0.25; under SYMR, not above 0.25. Take KHTC: the enrichment ratio is not above 0.25. As for CWYY, the figure is not above 0.25. Under QMDF stands not above 0.25. RWSK: the enrichment ratio was not above 0.25. On to NDTQ, for which the enrichment ratio was not above 0.25. As to NPRT, the enrichment ratio was not above 0.25. Under ILFH stands not above 0.25. Take QDMG: the enrichment ratio is not above 0.25. As for MRDN, the figure is not above 0.25.

As to QSYT, the enrichment ratio worked out at 8.7.

On to KRYV, for which the enrichment ratio was not above 0.25. Take PIDQ: the enrichment ratio is not above 0.25.

In the case of KGRL, the enrichment ratio was not above 0.25. Take AFHN: the enrichment ratio was not above 0.25. Under WNWY stands not above 0.25. As for MQYN, the figure is 8.1; as for TAPH, not above 0.25; as for HTYD, not above 0.25.

With ENYE, the enrichment ratio is not above 0.25.

Consider GGIT, for which the enrichment ratio is not above 0.25. Under YDFR stands not above 0.25. As for FYSK, the figure is not above 0.25; as for PMQL, not above 0.25; as for FMLY, not above 0.25. Consider RRLQ, for which the enrichment ratio was not above 0.25.

For the variant FSVM, the enrichment ratio was determined as 8.94. As for HHAE, the figure is not above 0.25. For KGVF, the enrichment ratio was not above 0.25.

As to VWME, the enrichment ratio was not above 0.25. Consider QMGE, for which the enrichment ratio came to 96.1. On to LETH, for which the enrichment ratio is not above 0.25. In the case of MHTL, the enrichment ratio is not above 0.25. Under EGSD stands not above 0.25; under QREH, not above 0.25; under WICR, not above 0.25. RVPW: the enrichment ratio is not above 0.25. As for PTTG, the figure is not above 0.25; as for PTIR, not above 0.25.

Turning to RTIR, the enrichment ratio was not above 0.25.

As to TVKR, the enrichment ratio is not above 0.25. GPYG: the enrichment ratio is not above 0.25. Under IQGG stands not above 0.25; under AFYW, not above 0.25. As for EGSV, the figure is not above 0.25; as for WDYW, not above 0.25; as for LVFN, not above 0.25.

As for LMHH, the enrichment ratio was not above 0.25. On to RPWS, for which the enrichment ratio is not above 0.25.

For the variant FKRN, the enrichment ratio is not above 0.25. For the variant PCQF, the enrichment ratio is not above 0.25. For the variant GDPG, the enrichment ratio was not above 0.25. As for HYDP, the figure is 0.484; as for PGRF, not above 0.25; as for QTEH, not above 0.25. Under EDLD stands not above 0.25.

For FSIC, the enrichment ratio is not above 0.25. Under SWIM stands not above 0.25. In the case of FPIY, the enrichment ratio is not above 0.25. For the variant IIGF, the enrichment ratio was not above 0.25.

Turning to SGDK, the enrichment ratio was not above 0.25. For RDFK, the enrichment ratio is not above 0.25. Consider DMTG, for which the enrichment ratio was not above 0.25. Consider DVMK, for which the enrichment ratio was not above 0.25.

With LLEG, the enrichment ratio was not above 0.25.

On to KQAG, for which the enrichment ratio is not above 0.25. As for NNHH, the figure is not above 0.25; as for YNFR, not above 0.25; as for SYNL, not above 0.25. As for WFAW, the figure is not above 0.25; as for CPLR, not above 0.25. Regarding RDHY, the enrichment ratio is not above 0.25. Under LFKM stands not above 0.25. As to VKLT, the enrichment ratio is not above 0.25.

Consider VWML, for which the enrichment ratio was not above 0.25. Under QPDK stands not above 0.25; under YYEC, not above 0.25.

For the variant ARVR, the enrichment ratio was not above 0.25. Under TWIS stands not above 0.25; under HMAG, not above 0.25; under DANM, not above 0.25. As to HWHG, the enrichment ratio was not above 0.25. As to VVAG, the enrichment ratio is not above 0.25. Under ERDM stands not above 0.25; under FNVE, not above 0.25; under QHDR, not above 0.25. As for MLMM, the figure is not above 0.25. Under KGDY stands not above 0.25. For VRMQ, the enrichment ratio is not above 0.25. As for PLEQ, the figure is not above 0.25; as for ARYT, not above 0.25.

RPGL: the enrichment ratio is not above 0.25. As for ACIV, the figure is 0.927; as for HFPY, not above 0.25; as for LCWT, not above 0.25. Turning to NIFW, the enrichment ratio was not above 0.25. Consider VTTC, for which the enrichment ratio is not above 0.25.
